From PubChem BioAssay AID1460 (National Center for Advancing Translational Sciences (NCATS), 2008)
Among all 270,000 compounds or so, about 5,800 (2.1%) were called active. Another 16% or so got no clear call; they are omitted. The call rests on the fitted dose curve; in most records, active means well fitted inhibition curve with a large enough effect; inconclusive means small, poorly fitted or top-dose-only effect; inactive means flat fitted curve, though single readings scatter. This is a selection; strong and weak results do not stand in their true shares.

Molecular target: Microtubule-associated protein tau (Homo sapiens) (UniProt P10636)
Sequence of UniProt P10636 (P10636 whole entry, looked up): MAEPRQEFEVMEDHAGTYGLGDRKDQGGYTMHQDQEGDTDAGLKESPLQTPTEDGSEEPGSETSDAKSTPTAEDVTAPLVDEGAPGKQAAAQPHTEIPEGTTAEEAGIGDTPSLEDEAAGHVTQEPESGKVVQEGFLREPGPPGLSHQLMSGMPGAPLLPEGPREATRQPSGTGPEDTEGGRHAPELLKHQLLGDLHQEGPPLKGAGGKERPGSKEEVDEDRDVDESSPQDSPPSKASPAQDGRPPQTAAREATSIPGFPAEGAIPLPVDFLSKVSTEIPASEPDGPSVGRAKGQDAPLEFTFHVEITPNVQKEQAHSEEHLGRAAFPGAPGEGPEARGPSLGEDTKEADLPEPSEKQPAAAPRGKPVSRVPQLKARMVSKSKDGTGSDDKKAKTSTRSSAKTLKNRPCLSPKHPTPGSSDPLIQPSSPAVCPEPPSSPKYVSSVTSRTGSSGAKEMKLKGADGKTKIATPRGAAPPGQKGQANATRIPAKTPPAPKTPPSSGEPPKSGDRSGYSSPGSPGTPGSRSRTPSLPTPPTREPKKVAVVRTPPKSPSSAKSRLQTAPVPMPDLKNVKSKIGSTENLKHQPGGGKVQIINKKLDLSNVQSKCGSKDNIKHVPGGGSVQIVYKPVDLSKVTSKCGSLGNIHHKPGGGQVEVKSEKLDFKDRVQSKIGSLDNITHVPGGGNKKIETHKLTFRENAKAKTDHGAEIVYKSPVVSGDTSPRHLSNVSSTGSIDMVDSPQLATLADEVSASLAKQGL
Experiment: qHTS for Inhibitors of Tau Fibril Formation, Thioflavin T Binding; further: nearly all actives have a fitted effect of over 55% in size
Conditions: recombinant tau K18 P301L (four-repeat tau fragment), heparin-induced fibrillization, ThT fluorescence; series mostly up to 57.4 µM; activity, negative = inhibition: at the top concentration
Method in brief: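 Tau K18 P301L fragment (15 uM unlabeled plus 0.24 uM Alexa 594-labeled) in 100 mM sodium acetate pH 7 with compound, fibrillization induced by 20 uM heparin for 6 hr at 37 C. Thioflavin T (30 uM) added, fluorescence read after 1 hr (ex 450, em 510 nm).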
On the % scale 0 is the no-effect control and ±100 the full control effect; potency means the concentration at half of the fitted maximal effect.

Row | Structure (SMILES) | activity, negative = inhibition | Potency
1 | CC1(C(=O)NCCc2c[nH]c3ccccc23)C=CCN1C(=O)c1ccccc1 (stereo not given) | inactive: -2.72% | –
2 | COc1ccc(NC(=O)CN(C)S(=O)(=O)c2ccc3c(c2)CCC(=O)N3)c(OC)c1 | inactive: -14.4% | –
3 | COc1cc(/C=C2\SC(=S)N(Nc3ccccc3)C2=O)ccc1O | – | active: 11.2 µM
4 | Cc1ccc(S(=O)(=O)N2CCC(=O)N([C@H](COCc3ccc(C(F)(F)F)cc3)Cc3ccccc3)CC2)cc1 | inactive: -13.8% | –
5 | CC[C@@H]1/C=C(\C)C[C@H](C)C[C@H](OC)[C@H]2O[C@@](O)(C(=O)C(=O)N3CCCC[C@H]3C(=O)O[C@H](/C(C)=C/[C@@H]3CC[C@@H](O)[C@H](OC)C3)[C@H](C)[C@@H](O)CC1=O)[C@H](C)C[C@@H]2OC | inactive: -9.48% | –
6 | COc1ccc2c(c1)C(=NN)c1cc(OC)ccc1-2 | – | active: 10 µM
7 | C#CCCCO/N=C1/C[C@@H](O)[C@@H](O)[C@@H]2[C@@H]3C(=O)N(Cc4ccccc4)C(=O)[C@H]3CC[C@H]12 | inactive: 5.28% [at 11.5 µM] | –
8 | COc1ccc2cc1Oc1ccc(cc1)CC1c3c(cc4c(c3Oc3cc5c(cc3OC)CCN(C)C5C2)OCO4)CCN1C (stereo not given) | inactive: -20.5% | –
9 | COC(=O)[C@H](COC(C)(C)C)NC(=O)O[C@H]1C(=O)c2cc(OC)ccc2O[C@@H]1c1ccc(OC)c(Br)c1 | inactive: -7.92% | –
10 | O=C1CCc2ccc(OCCCCN3CCN(c4cccc(Cl)c4Cl)CC3)cc2N1 | inactive: -17.3% | –
11 | O=C(NCCO)/C(=C\c1ccc2c(c1)OCO2)NC(=O)c1ccc(Br)cc1 | inactive: -4.81% | –
12 | CN1CCC(=C2c3ccccc3CCc3sccc32)CC1 | – | inactive
13 | COC(=O)CCC(=O)OC1(C)C(=O)C=C2C=C(C3CC3)N(C3CCCCC3)C=C2C1=O (stereo not given) | inactive: -6.11% [at 11.5 µM] | –
14 | COc1ccc(N2C(=O)C(Cl)=C(N3CCCC(C)C3)C2=O)cc1 (stereo not given) | – | active: 15.8 µM
15 | COC(=O)[C@H](Cc1ccccc1)NC(=O)[C@@]1(C)C[C@@H]1[C@@H](NC(=O)OCc1ccccc1)c1ccccc1 | inactive: -16.3% | –
16 | C#CCN(C)CCCOc1ccc(Cl)cc1Cl | inactive: -14.2% | –
17 | Oc1cc2c(c(Cl)c1O)CCNCC2c1ccccc1 (stereo not given) | – | inactive
18 | CC(C)=CCC/C(C)=C/CC/C(C)=C/CC/C(C)=C/CO | inactive: -24.5% | –
19 | COc1ccccc1N1CCN(CCCNc2cc(=O)n(C)c(=O)n2C)CC1 | – | inactive
20 | CCSc1ncc(/C=N/Nc2ccc(Cl)cc2)n1C | – | active: 7.94 µM
21 | COc1ccc(N/C=C\C(=O)c2ccc(C)cc2)cc1OC | – | active: 10 µM
22 | COc1ccc(CCCc2nnc(SCC(=O)Nc3cccc(C)c3)o2)cc1 | inactive: -16.1% | –

Row | Structure (SMILES) | activity, negative = inhibition | Potency
23 | CC1(C)Oc2ccc3ccc(=O)oc3c2C[C@H]1O | inactive: 3.12% | –
24 | CC[C@@H](C)[C@H]1O[C@]2(CC[C@@H]1C)C[C@@H]1C[C@H](C/C=C(/C)[C@H](O[C@@H]3C[C@H](OC)[C@H](O[C@@H]4C[C@H](OC)[C@@H](O)[C@H](C)O4)[C@H](C)O3)[C@@H](C)/C=C\C=C3CO[C@@H]4[C@H](O)C(C)=C[C@@H](C(=O)O1)[C@]34O)O2 (tested in a mixture with another compound) | inactive: 4.76% | –
25 | CC1CCCC(C)N1C(=O)Cn1cc(/C=C2/C(=O)Nc3ccccc32)c2ccccc21 (stereo not given) | – | active: 14.1 µM
26 | CC(=O)N1CCN(c2ccc(NCc3ccc(C(C)C)cc3)cc2)CC1 | – | active: 12.6 µM
27 | CCCCCC(=O)O[C@@]1(C(C)=O)CCC2C3CCC4=CC(=O)CC[C@@]4(C)C3CC[C@]21C (stereo not given in full) | inactive: -17.6% | –
28 | Cc1cc(C)c(NC(=O)Cn2cnc3c(oc4ccccc43)c2=O)c(C)c1 | inactive: -8.95% | –
29 | Nc1ccc2c3c(cccc13)C(=O)NC2=O | inactive: -2.84% | –
30 | O=C(NCc1nc2ccccc2[nH]1)C1=C[C@@H](c2ccc3c(c2)OCO3)C[C@@H](OCc2ccc(CO)cc2)O1 | inactive: -0.477% | –
31 | COC(=O)CCCC1=CC2=CC(=O)C(C)(OC(=O)c3cccs3)C(=O)C2=CN1CC(C)C (stereo not given) | inactive: -12.7% [at 11.5 µM] | –
32 | [2H]c1c([2H])c([2H])c(-c2nc(N3CCCCCC3)sc2C(=O)c2ccccc2)c([2H])c1[2H] | inactive: -19.9% | –
33 | CCCN1C(=O)C(Cc2nc3ccccc3c(=O)n2-c2ccccc2)c2cc(C)ccc21 (stereo not given) | inactive: -18% | –
34 | O=C(CSc1nc2ccc(S(=O)(=O)N3CCOCC3)cc2[nH]1)N1CCOCC1 | – | active: 28.2 µM
35 | Cc1noc(NS(=O)(=O)c2ccc(N/C=C\C(=O)c3ccc(F)cc3)cc2)c1C | inactive: 8.65% | –
36 | COc1cc(C2CC(=O)Oc3c2c(=O)n(C)c2ccccc32)ccc1O (stereo not given) | inactive: -14.3% | –
37 | COc1ccc(C[C@H]2CN3C(=NC[C@@H]3Cc3ccccc3)N2CCNC(=O)CCC2CCCCC2)cc1 | inactive: -17.5% | –
38 | O=C(N/N=C/c1cccc([N+](=O)[O-])c1O)c1cccs1 | – | active: 5.01 µM
39 | O=C(O)CCn1cc(/C=C/C(=O)c2ccc(Cl)cc2)c(-c2cccc(Br)c2)n1 | inactive: -5.32% | –
40 | CCCC1=C/C(=C/c2ccc(-c3ccccc3OC)o2)C(=O)O1 | – | active: 12.6 µM
41 | CCCCC1=CC2=CC(=O)C(C)(OC(=O)C3CCCC3)C(=O)C2=CO1 (stereo not given) | inactive: -6.52% | –
42 | CC(NC(=O)/C(=C/c1cccc([N+](=O)[O-])c1)NC(=O)c1ccco1)C(=O)O (stereo not given) | inactive: 2.33% | –
43 | CCCCC(C=O)NC(=O)C(CC(C)C)NC(=O)OCc1ccccc1 (stereo not given) | inactive: -6.11% | –
44 | CCCOc1ccccc1-c1nc2n[nH]nc2c(=O)[nH]1 | – | inactive

Row | Structure (SMILES) | activity, negative = inhibition | Potency
45 | S=C(Nc1ccccc1)c1ccccn1 | inactive: -8.8% | –
46 | COc1ccc(CCCc2nnc(SCC(=O)Nc3cc(C)ccc3C)o2)cc1 | inactive: -20.5% | –
47 | CC1=C(C(=O)O)N2C(=O)[C@@H](NC(=O)C(N)c3ccccc3)[C@H]2SC1 (stereo not given in full) | inactive: -10.4% | –
48 | CCCCCCCCCCCCC/C=C/[C@@H](O)[C@@H](N)CO | – | inactive
49 | Cc1cc(N)c2ccccc2[n+]1CCCCCCCCCC[n+]1c(C)cc(N)c2ccccc21 | inactive: -19.4% | –
50 | Cn1c(=O)c(=O)n(C)c2cc(S(=O)(=O)N3CCN(c4ccc(F)cc4)CC3)ccc21 | inactive: -5.14% | –
51 | COC(=O)[C@@H](NC(=O)O[C@@H]1C(=O)c2cc(Br)ccc2O[C@H]1c1cccc(OC)c1)C(C)C | inactive: -13.4% | –
52 | CC(C)NC(=O)/C(C#N)=C\c1ccc(N(C)C)o1 | inactive: -11.8% | –
53 | COC(=O)CCC(=O)OC1(C)C(=O)C2=COC(c3ccc(OC)cc3)=CC2=C(Br)C1=O (stereo not given) | – | active: 12.6 µM
54 | CC1(C)CC(=O)C([C@H]2C3=C(CC(C)(C)CC3=O)Oc3ccccc32)C(=O)C1 | inactive: -10.1% | –
55 | COC(=O)[C@H](Cc1ccccc1)NC(=O)O[C@@H]1C(=O)c2cc(OC)ccc2O[C@H]1c1ccc(OC)c(Br)c1 | inactive: -10.8% | –
56 | CC1(OC(=O)C2CCCC2)C(=O)C=C2C=C3CCCCN3C=C2C1=O (stereo not given) | inactive: -5.24% [at 11.5 µM] | –
57 | CCCC(=O)OC1CC(C)N(C(=O)c2ccccc2)c2ccc(C)cc21 (stereo not given) | inactive: -1.78% | –
58 | C[C@@]12CCC3c4ccc(O)cc4CCC3C1CCC2O (stereo not given in full) | inactive: -16.9% | –
59 | CCC1=C(OC(=O)N(CC)CC)N2C(=O)OC(=NCCc3c[nH]c4ccccc34)[C@]2(C)[C@H]2C1=CC[C@H]1C(=O)N(C)C(=O)[C@H]12 | inactive: -4.19% | –
60 | COc1ccc(-c2csc(Nc3ccc(O)cc3)n2)cc1 | – | active: 7.94 µM
61 | Nc1ccc(O)c2c(=O)cc(-c3ccccc3Cl)oc12 | inactive: -17.9% | –
62 | CCc1cccc(NC(=O)CCNS(=O)(=O)c2cccc3nonc23)c1 | inactive: -4.08% | –
63 | COc1cc(N=Nc2ccccc2C(=O)O)ccc1O | – | active: 7.08 µM
64 | O=C(Cn1cc(SCc2cccc(Cl)c2)c2ccccc21)N1CCOCC1 | inactive: 6.28% | –
65 | COc1cc(O)c(NC(C)=O)c2nonc12 | – | active: 7.94 µM
66 | C=CCN1C=C2C(=O)C(C)(OC(=O)c3ccc(OC)cc3)C(=O)C(c3ccco3)=C2C=C1CCCC (stereo not given) | inactive: -0.609% [at 11.5 µM] | –

Row | Structure (SMILES) | activity, negative = inhibition | Potency
67 | COC(=O)c1ccc2c(c1)C(C)(C)C(/C=C/c1ccc(O)cc1)=[N+]2C | – | active: 12.6 µM
68 | Cc1ccc(C(C[N+](=O)[O-])c2c(-c3ccccc3O)[nH][nH]c2=O)cc1 (stereo not given) | – | active: 17.8 µM
69 | Cc1ccc(-c2cc(N)n(-c3ccc(C)cc3)n2)cc1 | inactive: -12% | –
70 | CCCCCCN(C(=O)CCCCCN1C(=O)NC(c2ccc(-c3ccccc3)cc2)C(C(=O)OCc2ccccc2)=C1C)C(C(=O)NCCCC)c1ccccn1 (stereo not given) | inactive: -16% | –
71 | COCCN=C1OC(=O)N2C(=O)C3=C4[C@@H](C[C@H]5C(=O)N(c6ccccc6)C(=O)[C@H]5[C@H]4[C@@]12Cc1ccccc1)[C@H]1C(=O)N(c2ccccc2)C(=O)[C@H]1[C@H]3C | inactive: -6.93% | –
72 | COc1cc(CNc2ccc3[nH]c(=O)[nH]c3c2)cc(Cl)c1OCC(=O)NC(C)(C)C | – | active: 11.2 µM
73 | Cc1ccc(S(=O)(=O)NC(=O)NN2CCCCCC2)cc1 | – | inactive
74 | CC(C)c1ccc2c(c1)CC[C@@H]1[C@@](C)(CN)CCC[C@]21C | inactive: -4.78% | –
75 | Fc1ccc(N=C2NN=C(c3cc(F)ccc3F)CS2)cc1 | – | active: 12.6 µM
76 | CC[N+](CC)(CC)CC(=O)Nc1c(C)cccc1C | – | inactive
77 | COc1ccc(C(=O)c2coc3c2C(=O)C(=O)c2ccccc2-3)cc1 | – | active: 2.82 µM
78 | O=c1[nH]c(=O)n([C@H]2C[C@H](O)[C@@H](CO)O2)cc1Br | inactive: -4.78% | –
79 | Cc1cc(Br)cc2c1N(Cc1ccccc1OC(C)C)C(=O)C2=O | – | active: 25.1 µM
80 | Cc1ccccc1NC(=O)/C(C#N)=C\c1ccsc1 | inactive: -15.5% | –
81 | OC(CN1CCN(c2cccc(Cl)c2)CC1)C(c1ccccc1)c1ccccc1 (stereo not given) | – | inactive
82 | CC1=NN(C(N)=S)C(=O)C1N=Nc1ccc(O)cc1 (stereo not given) | – | active: 12.6 µM
83 | COc1ccc(N2CCN(C(=O)c3ccc4c(=O)n(CCc5ccc(OC)c(OC)c5)c(=O)[nH]c4c3)CC2)cc1 | inactive: -10.8% | –
84 | COc1ccccc1CNC(=O)CSc1cc(=O)n(C)c2ccccc12 | inactive: -0.873% | –
85 | Cc1ccc(C(=O)N/C(=C/C=C\c2ccccc2)C(=O)NCc2ccco2)cc1 | inactive: 1.97% | –
